Source: the supplement of paper PMC8728848
Some of the results follow.

Columns and labels:
Assay in all cases: glycan array binding signal (z-score within array); higher = stronger binding
Conditions in all cases: glycan notation: IUPAC condensed, linker removed
Gal(a1-3)Gal(b1-4)GlcNAc = molecular target: Gal(a1-3)Gal(b1-4)GlcNAc
Method in brief: (§1)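 Glycan array binding is given as a within-array Z-score, which can be read as non-binding when negative. The arrays, 3228 of them, came from the Consortium for Functional Glycomics database and were retained only where the protein sequence was available. Z-scores were averaged across arrays of the same protein sequence at different concentrations or buffers and across linkers.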

[1] = molecular target: Gal(a1-3)Gal(b1-4)GlcNAc(b1-2)Man
Method in brief: as §1

[2] = molecular target: Gal(a1-3)Gal(b1-4)GlcNAc(b1-2)Man(a1-3)[Gal(a1-3)Gal(b1-4)GlcNAc(b1-2)Man(a1-6)]Man(b1-4)GlcNAc(b1-4)GlcNAc
Method in brief: as §1

[3] = molecular target: Gal(a1-3)Gal(b1-4)GlcNAc(b1-3)GalNAc
Method in brief: as §1

[4] = molecular target: Gal(a1-3)Gal(b1-4)GlcNAc(b1-6)GalNAc
Method in brief: as §1

[5] = molecular target: Gal(a1-3)Gal(b1-4)[Fuc(a1-3)]GlcNAc
Method in brief: as §1

[6] = molecular target: Gal(a1-3)Gal(b1-4)[Fuc(a1-3)]GlcNAc(b1-2)Man(a1-3)[Gal(a1-3)Gal(b1-4)[Fuc(a1-3)]GlcNAc(b1-2)Man(a1-6)]Man(b1-4)GlcNAc(b1-4)GlcNAc
Method in brief: as §1

Gal(a1-3)GalNAc = molecular target: Gal(a1-3)GalNAc
Method in brief: as §1

[7] = molecular target: Gal(a1-3)[Gal(a1-4)]Gal(b1-4)GlcNAc
Method in brief: as §1

[8] = molecular target: Gal(a1-4)Gal(b1-3)GlcNAc(b1-2)Man(a1-3)[Gal(a1-4)Gal(b1-3)GlcNAc(b1-2)Man(a1-6)]Man(b1-4)GlcNAc(b1-4)GlcNAc
Method in brief: as §1

Gal(a1-4)Gal(b1-4)Glc = molecular target: Gal(a1-4)Gal(b1-4)Glc
Method in brief: as §1

Gal(a1-4)Gal(b1-4)GlcNAc = molecular target: Gal(a1-4)Gal(b1-4)GlcNAc
Method in brief: as §1

[9] = molecular target: Gal(a1-4)Gal(b1-4)GlcNAc(b1-2)Man(a1-3)[Gal(a1-4)Gal(b1-4)GlcNAc(b1-2)Man(a1-6)]Man(b1-4)GlcNAc(b1-4)GlcNAc
Method in brief: as §1

[10] = molecular target: Gal(a1-4)Gal(b1-4)GlcNAc(b1-3)Gal(b1-4)Glc
Method in brief: as §1

Gal(a1-4)GlcNAc = molecular target: Gal(a1-4)GlcNAc
Method in brief: as §1

Gal(a1-6)Glc = molecular target: Gal(a1-6)Glc
Method in brief: as §1

Gal(b1-2)Gal = molecular target: Gal(b1-2)Gal
Method in brief: as §1

Gal(b1-3)Gal = molecular target: Gal(b1-3)Gal
Method in brief: as §1

Gal(b1-3)Gal(b1-4)GlcNAc = molecular target: Gal(b1-3)Gal(b1-4)GlcNAc
Method in brief: as §1

Gal(b1-3)GalNAc = molecular target: Gal(b1-3)GalNAc
Method in brief: as §1

[11] = molecular target: Gal(b1-3)GalNAc(a1-3)[Fuc(a1-2)]Gal(b1-4)Glc
Method in brief: as §1

[12] = molecular target: Gal(b1-3)GalNAc(a1-3)[Fuc(a1-2)]Gal(b1-4)GlcNAc
Method in brief: as §1

Gal(b1-3)GalNAc(b1-3)Gal = molecular target: Gal(b1-3)GalNAc(b1-3)Gal
Method in brief: as §1

[13] = molecular target: Gal(b1-3)GalNAc(b1-3)Gal(a1-4)Gal(b1-4)Glc
Method in brief: as §1

[14] = molecular target: Gal(b1-3)GalNAc(b1-4)Gal(b1-4)Glc
Method in brief: as §1

[15] = molecular target: Gal(b1-3)GalNAc(b1-4)[Neu5Ac(a2-3)]Gal(b1-4)Glc
Method in brief: as §1

Gal(b1-3)GlcNAc = molecular target: Gal(b1-3)GlcNAc
Method in brief: as §1

[16] = molecular target: Gal(b1-3)GlcNAc(a1-3)Gal(b1-4)GlcNAc
Method in brief: as §1

[17] = molecular target: Gal(b1-3)GlcNAc(a1-6)Gal(b1-4)GlcNAc
Method in brief: as §1

Gal(b1-3)GlcNAc(b1-2)Man = molecular target: Gal(b1-3)GlcNAc(b1-2)Man
Method in brief: as §1

[18] = molecular target: Gal(b1-3)GlcNAc(b1-2)Man(a1-3)[Gal(b1-3)GlcNAc(b1-2)Man(a1-6)]Man(b1-4)GlcNAc(b1-4)GlcNAc
Method in brief: as §1

[19] = molecular target: Gal(b1-3)GlcNAc(b1-2)Man(a1-3)[Gal(b1-3)GlcNAc(b1-2)Man(a1-6)]Man(b1-4)GlcNAc(b1-4)[Fuc(a1-6)]GlcNAc
Method in brief: as §1

[20] = molecular target: Gal(b1-3)GlcNAc(b1-2)Man(a1-3)[GlcNAc(b1-4)][Gal(b1-3)GlcNAc(b1-2)Man(a1-6)]Man(b1-4)GlcNAc(b1-4)GlcNAc
Method in brief: as §1

[21] = molecular target: Gal(b1-3)GlcNAc(b1-2)[Gal(b1-3)GlcNAc(b1-6)]Man(a1-6)[Gal(b1-3)GlcNAc(b1-2)Man(a1-3)]Man(b1-4)GlcNAc(b1-4)GlcNAc
Method in brief: as §1

[22] = molecular target: Gal(b1-3)GlcNAc(b1-3)Gal(b1-3)GlcNAc
Method in brief: as §1

[23] = molecular target: Gal(b1-3)GlcNAc(b1-3)Gal(b1-4)Glc
Method in brief: as §1

[24] = molecular target: Gal(b1-3)GlcNAc(b1-3)Gal(b1-4)GlcNAc
Method in brief: as §1

[25] = molecular target: Gal(b1-3)GlcNAc(b1-3)Gal(b1-4)GlcNAc(b1-2)Man(a1-3)[Gal(b1-3)GlcNAc(b1-3)Gal(b1-4)GlcNAc(b1-2)Man(a1-6)]Man(b1-4)GlcNAc(b1-4)GlcNAc
Method in brief: as §1

[26] = molecular target: Gal(b1-3)GlcNAc(b1-3)Gal(b1-4)GlcNAc(b1-2)[Gal(b1-3)GlcNAc(b1-3)Gal(b1-4)GlcNAc(b1-6)]Man(a1-6)[Gal(b1-3)GlcNAc(b1-3)Gal(b1-4)GlcNAc(b1-2)Man(a1-3)]Man(b1-4)GlcNAc(b1-4)[Fuc(a1-6)]GlcNAc
Method in brief: as §1

[27] = molecular target: Gal(b1-3)GlcNAc(b1-3)Gal(b1-4)GlcNAc(b1-3)Gal(b1-4)GlcNAc(b1-2)[Gal(b1-3)GlcNAc(b1-3)Gal(b1-4)GlcNAc(b1-3)Gal(b1-4)GlcNAc(b1-6)]Man(a1-6)[Gal(b1-3)GlcNAc(b1-3)Gal(b1-4)GlcNAc(b1-3)Gal(b1-4)GlcNAc(b1-2)Man(a1-3)]Man(b1-4)GlcNAc(b1-4)[Fuc(a1-6)]GlcNAc
Method in brief: as §1

[28] = molecular target: Gal(b1-3)GlcNAc(b1-3)Gal(b1-4)GlcNAc(b1-6)[Gal(b1-3)GlcNAc(b1-3)]Gal(b1-4)Glc
Method in brief: as §1

[29] = molecular target: Gal(b1-3)GlcNAc(b1-3)Gal(b1-4)[Fuc(a1-3)]GlcNAc
Method in brief: as §1

[30] = molecular target: Gal(b1-3)GlcNAc(b1-3)Gal(b1-4)[Fuc(a1-3)]GlcNAc(b1-6)[Gal(b1-3)GlcNAc(b1-3)]Gal(b1-4)Glc
Method in brief: as §1

[31] = molecular target: Gal(b1-3)GlcNAc(b1-3)GalNAc
Method in brief: as §1

[32] = molecular target: Gal(b1-3)GlcNAc(b1-6)Gal(b1-4)GlcNAc
Method in brief: as §1

B1: Mg1lysM (Mycosphaerella graminicola) (protein)
chain: QRNPITITPQFDCGATNSQQYVARSGDTLTKIAQEIYHDVVGVCDIARANNLADPNRIDAGTPYTIPINCQTYDRNSCL
Gal(a1-3)Gal(b1-4)GlcNAc
  glycan array binding signal (z-score): -0.062
[1]
  glycan array binding signal (z-score): -0.056
[2]
  glycan array binding signal (z-score): -0.089
[3]
  glycan array binding signal (z-score): -0.046
[4]
  glycan array binding signal (z-score): -0.089
[5]
  glycan array binding signal (z-score): -0.097
[6]
  glycan array binding signal (z-score): -0.004
Gal(a1-3)GalNAc
  glycan array binding signal (z-score): -0.067
[7]
  glycan array binding signal (z-score): -0.056
[8]
  glycan array binding signal (z-score): -0.074
Gal(a1-4)Gal(b1-4)Glc
  glycan array binding signal (z-score): -0.054
Gal(a1-4)Gal(b1-4)GlcNAc
  glycan array binding signal (z-score): -0.058
[9]
  glycan array binding signal (z-score): -0.061
[10]
  glycan array binding signal (z-score): -0.086
Gal(a1-4)GlcNAc
  glycan array binding signal (z-score): -0.065
Gal(a1-6)Glc
  glycan array binding signal (z-score): -0.075
Gal(b1-2)Gal
  glycan array binding signal (z-score): -0.075
Gal(b1-3)Gal
  glycan array binding signal (z-score): -0.061
Gal(b1-3)Gal(b1-4)GlcNAc
  glycan array binding signal (z-score): -0.084
Gal(b1-3)GalNAc
  glycan array binding signal (z-score): -0.07
[11]
  glycan array binding signal (z-score): -0.088
[12]
  glycan array binding signal (z-score): -0.092
Gal(b1-3)GalNAc(b1-3)Gal
  glycan array binding signal (z-score): -0.052
[13]
  glycan array binding signal (z-score): -0.06
[14]
  glycan array binding signal (z-score): -0.049
[15]
  glycan array binding signal (z-score): -0.08
Gal(b1-3)GlcNAc
  glycan array binding signal (z-score): -0.069
[16]
  glycan array binding signal (z-score): -0.067
[17]
  glycan array binding signal (z-score): -0.088
Gal(b1-3)GlcNAc(b1-2)Man
  glycan array binding signal (z-score): -0.072
[18]
  glycan array binding signal (z-score): -0.049
[19]
  glycan array binding signal (z-score): -0.079
[20]
  glycan array binding signal (z-score): 0.125
[21]
  glycan array binding signal (z-score): -0.066
[22]
  glycan array binding signal (z-score): -0.087
[23]
  glycan array binding signal (z-score): -0.059
[24]
  glycan array binding signal (z-score): -0.07
[25]
  glycan array binding signal (z-score): -0.05
[26]
  glycan array binding signal (z-score): 0.02
[27]
  glycan array binding signal (z-score): -0.044
[28]
  glycan array binding signal (z-score): -0.069
[29]
  glycan array binding signal (z-score): -0.089
[30]
  glycan array binding signal (z-score): -0.078
[31]
  glycan array binding signal (z-score): -0.087
[32]
  glycan array binding signal (z-score): -0.047
